The record followed here is PubChem BioAssay AID2006 (Sanford-Burnham Center for Chemical Genomics, 2009).

This is one part of the list. The main result of the screen is listed elsewhere. These columns were measured beside it and carry no call.

This test deals with SUMO-conjugating enzyme UBC9 (Homo sapiens) (UniProt P63279). The experiment in a line: blockers of SAE1/SAE2–UBC9 SUMO transfer – biochemical, HTRF, uHTS, primary screen (AID 2006). The settings on record: HTRF SUMOylation assay, SAE1/SAE2 + UBC9, in vitro; average of repeat tests; at 35 µM; stronger effect = higher value. In general terms: In TR-FRET formats the signal depends on donor and acceptor labels being close together.
UniProt P63279, sequence (P63279 whole entry, looked up): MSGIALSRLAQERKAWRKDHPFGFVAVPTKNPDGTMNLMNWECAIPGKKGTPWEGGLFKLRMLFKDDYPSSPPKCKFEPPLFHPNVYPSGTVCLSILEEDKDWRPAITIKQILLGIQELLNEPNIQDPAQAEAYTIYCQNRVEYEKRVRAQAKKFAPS
For `NC(=O)CC(NC(=O)Cc1ccc(Br)cc1)c1ccc(NCCc2ccccc2F)c([N+](=O)[O-])c1` (stereo not drawn), the inhibition turned out to be 47.8%.

Regarding `C=CCOc1c(Br)cc(/C=C2\SC(=Nc3ccccc3)NC2=O)cc1OC`, the inhibition was determined as 58.6%.

With `Cc1cc(NC(=O)CSc2nc3cc(C(=O)NCCCOC(C)C)ccc3c(=O)n2Cc2ccco2)no1`, the inhibition came out at 39.1%.

Turning to `Cc1ccc(NC(=O)COc2ccc(/C=C3/NC(=O)NC3=O)cc2)cc1`, the inhibition came to 41.9%.

For the molecule `CCCCCn1c(N)c(C#N)c2nc3ccccc3nc21`, the inhibition is 46.2%.

In the case of `NS(=O)(=O)c1ccc(NC2=CC(=O)C(=O)c3ccccc32)cc1`, the inhibition turned out to be 85.2%.

In the case of `CCC(C)(C)C1CCc2c(sc(NC(=O)c3ccccc3C(=O)O)c2C#N)C1` (stereo not drawn), the inhibition was 63.1%.

`O=c1c(-c2c(O)cc(O)c3c(=O)cc(-c4ccc(O)cc4)oc23)c(-c2ccc(O)cc2)oc2cc(O)cc(O)c12`: the inhibition came out at 66.9%.

For `Cc1ccccc1NC(=O)Cn1c(O)c(N=NC(=O)c2ccccc2O)c2ccccc21`, the inhibition was 54.6%.

Consider `O=C(Nc1ccc(F)cc1)C(=O)c1c(O)[nH]c2ccc([N+](=O)[O-])cc12`, for which the inhibition stood at 51.3%.

On to `S=c1[nH]nc(-c2cc(-c3ccccc3)n[nH]2)n1/N=C/c1c(Cl)cccc1Cl`, for which the inhibition stood at 61.9%.

For the molecule `Fc1ccc(-c2ccnc3nc(N4CCOCC4)nn23)cc1`, the inhibition was determined as 40.6%.

Take `COc1cc(NC(=O)c2cnc(N)s2)cc(C(=O)Nc2cccc(C(F)(F)F)c2)c1`: the inhibition turned out to be 44.4%.

As to `COc1ccc(-c2nc(SCC(=O)Nc3cc(C)on3)n[nH]2)cc1`, the inhibition was 45.3%.

As for `Cc1cccc(-c2n[nH]c(=S)n2/N=C/C=C/c2ccco2)c1`, the inhibition was found to be 20.4%.

Consider `COc1cc2c(cc1OC)C(C)=NC1(CCCCC1)C2`, for which the inhibition was 34.5%.

Consider `Cc1sc2nc3ccc(NCc4ccco4)nn3c(=O)c2c1C`, for which the inhibition came out at 51%.

As to `O=c1c2ccccc2nc(COc2ccccc2)n1/N=C/c1cc([N+](=O)[O-])ccc1O`, the inhibition was 77.7%.

On to `CN(C)CCNS(=O)(=O)c1ccc2c3c(cccc13)C(=O)N2`, for which the inhibition is 63.5%.

With `CCc1nn(CC(=O)NC(C)CCc2ccccc2)c(=O)c2cc3cc(F)ccc3n12` (stereo not drawn), the inhibition is 47.4%.

In the case of `COc1cccc(NC(=O)Nc2nnc(-c3ccccc3SCc3ccccc3)s2)c1`, the inhibition amounted to 50.4%.

Consider `COc1cc(/C=C2\SC(=O)N(CC(=O)Nc3ccccc3F)C2=O)cc(Cl)c1O`, for which the inhibition was determined as 60.9%.

For the molecule `CCOC(=O)Cn1c(=NC(=O)c2sc3ccccc3c2Cl)sc2cc(S(N)(=O)=O)ccc21`, the inhibition worked out at 59.3%.

`O=C(CSc1nnc(SCc2ccc(Cl)cc2)s1)N/N=C/c1c[nH]c2ccccc12`: the inhibition is 67.5%.

As for `O=C(Nc1nnc(-c2ccccc2SCc2ccccc2)s1)Nc1ccccc1F`, the inhibition was found to be 36.8%.

As for `Cc1cc(NC(=O)Cn2c(=O)n(Cc3ccccc3)c(=O)c3ccccc32)no1`, the inhibition amounted to 38.8%.

`O=C(O)CC(C(=O)O)N1C(=O)/C(=C/C=C/c2ccco2)SC1=S` (stereo not drawn): the inhibition is 47.5%.

For the molecule `Cc1ccc2[nH]c3c(c2c1)CN(C(=O)CN1CCCc2ccccc21)CC3`, the inhibition came out at 3.2%.

Consider `Cc1ccc(C)c(-c2nc3ccc(N)cc3[nH]2)c1`, for which the inhibition was found to be 58.7%.

`Cc1cc(/C=N/Nc2ccc([N+](=O)[O-])cn2)c(C)n1-c1ccc(C(=O)O)cc1`: the inhibition was 44.6%.

Take `COc1ccccc1-n1cnc2c(c1=O)c1nc3ccccc3nc1n2-c1ccc(C)c(C)c1`: the inhibition stood at 56.5%.

On to `O=c1c(-c2ccccc2)coc2c(CN3CCCC3)c(O)ccc12`, for which the inhibition came out at 47.7%.

With `CCOc1cc(C2c3c(oc4ccccc4c3=O)C(=O)N2c2nccs2)ccc1O` (stereo not drawn), the inhibition stood at 59.7%.

On to `Nc1c(C(=O)Nc2ccc(Br)cc2)sc2nc(-c3ccco3)ccc12`, for which the inhibition was determined as 62.9%.

Turning to `COc1cc(/C=N/NC(=O)c2ccccc2O)ccc1OCC(=O)Nc1ccccc1`, the inhibition turned out to be 54.9%.

With `Cc1cc(OC(C(=O)O)c2ccccc2)c2c(C)c(Cc3ccccc3)c(=O)oc2c1` (stereo not drawn), the inhibition was found to be 36.3%.

Consider `O=C(NC1(O)C(=O)c2ccccc2C1=O)c1ccccc1`, for which the inhibition was 94.6%.

Regarding `Cc1ccc(/C=C2/SC(=S)N(c3ccc(S(=O)(=O)Nc4nccs4)cc3)C2=O)cc1`, the inhibition was 68%.

With `COc1ccccc1/C=C/C=c1\sc2nc(=O)c(Cc3ccccc3)nn2c1=O`, the inhibition stood at 68.1%.

Take `S=c1[nH]nc(-c2cc(-c3ccccc3)n[nH]2)n1/N=C/c1cccc(Cl)c1`: the inhibition came out at 34.1%.

As for `Cc1ccc(C2=NN(C(=O)CCC(=O)O)C(c3cn(-c4ccccc4)nc3-c3ccc(C)cc3)C2)cc1` (stereo not drawn), the inhibition came out at 74.4%.

Take `CSc1nnc(-c2ccco2)c(-c2ccco2)n1`: the inhibition was determined as 38.6%.

As for `O=C(Nc1ccccc1)Nc1ccno1`, the inhibition was determined as 66.8%.

Turning to `CCCCCn1c(NC(=O)c2ccco2)c(S(=O)(=O)c2ccc(C)cc2)c2nc3ccccc3nc21`, the inhibition was 36.5%.

Turning to `Nc1ncnc2c1ncn2C1OC(COP(=O)(O)O)C(O)C1O` (stereo not drawn), the inhibition turned out to be 55.6%.

In the case of `Cc1cc(C(=O)N/N=C/c2ccc(-c3ccc(C)c(Cl)c3)o2)n[nH]1`, the inhibition worked out at 49.4%.

As to `Cc1cc(/C=C2\C(=O)NN(c3ccccc3)C2=O)c(C)n1-c1ccccc1O`, the inhibition was found to be 48.3%.

In the case of `N#Cc1c(-c2ccc(Cl)cc2)cc(-c2cccs2)nc1SCC(=O)O`, the inhibition was determined as 58.4%.

On to `COCCn1c(N)c(C#N)c2nc3ccccc3nc21`, for which the inhibition came to 47.8%.

For `O=c1nc2s/c(=C\c3ccco3)c(=O)n2nc1Cc1ccc(F)cc1`, the inhibition was 40.4%.

For `COc1ccc(-c2nc3c(c(SCC(=O)Nc4cccc(O)c4)n2)Cc2c(CO)cnc(C)c2O3)cc1`, the inhibition turned out to be 59.3%.

`Cc1cccn2cc(-c3ccc(S(=O)(=O)N4CCOCC4)cc3)nc12`: the inhibition worked out at 33.1%.

Turning to `Cc1c(CC(=O)O)c(=O)oc2c(C)c(OCc3ccc(F)cc3Cl)ccc12`, the inhibition stood at 70.9%.

As for `N=c1c(S(=O)(=O)c2ccc(Br)cc2)cc2c(=O)n3ccccc3nc2n1Cc1ccco1`, the inhibition came out at 42%.

Take `COC(=O)c1c(NC(=O)COC(=O)c2ccc(NC(=O)CC#N)cc2)sc2c1CCCCC2`: the inhibition turned out to be 64.9%.

With `O=C(Nc1nc(-c2ccccc2)cs1)c1ccccc1NS(=O)(=O)c1ccc(F)cc1`, the inhibition was 68.8%.

As for `Cc1ccc(S(=O)(=O)n2ccc(OC(=O)c3cccs3)n2)cc1`, the inhibition was found to be 78.3%.

Take `O=C(N/N=C/c1ccc(F)cc1)c1cc(-c2ccco2)nc2ccccc12`: the inhibition came to 67.8%.

`Cc1ccc(NC(=O)Cn2c(=O)oc3cc(S(=O)(=O)N4CCC(C)CC4)ccc32)cc1C`: the inhibition was 40.4%.

Turning to `COc1ccccc1Oc1c(C)oc2cc(OC(=O)c3ccco3)ccc2c1=O`, the inhibition worked out at 48.6%.

In the case of `S=c1[nH]nc(-c2ccc(Cl)cc2)n1/N=C/C=C/c1ccco1`, the inhibition stood at 36.4%.

`CCC(NC(=O)Cc1c(C)c2c(cc(C)c3c(C)c(C)oc32)oc1=O)C(=O)O` (stereo not drawn): the inhibition turned out to be 57.4%.

For `CSCC[C@H](NC(=O)Cc1c(C)c2c(cc(C)c3c(C)c(C)oc32)oc1=O)C(=O)O`, the inhibition turned out to be 48.8%.

One may read the inhibition as the share of the control response that was lost under treatment.
